Results from PubChem BioAssay AID1345083 (National Center for Advancing Translational Sciences (NCATS), 2018).
Screen size: about 94,000 compounds; about 6,200 (6.6%) were called active. Inconclusive results, whose numbers are uncertain, are shown with a selection of clear calls. The call rests on the fitted dose curve; in most records, active means well fitted inhibition curve with a large enough effect; inconclusive means small, poorly fitted or top-dose-only effect; inactive means flat fitted curve, though single readings scatter. Where the call is inconclusive, the potency comes from a doubtful curve fit.

Experiment: Cytotoxic Profiling in HEK 293 Cell Line of Diverse Libraries Using Quantitative High-Throughput Screening; further: nearly all actives have a fitted effect of over 60% in size
Settings: HEK 293 viability, ATP luminescence (CellTiter-Glo), 48-72 h; activity change, negative = cytotoxicity: at 115 µM (top of the series) unless noted; series mostly up to 115 µM
Method in brief: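 qHTS cytotoxicity; HEK 293, 250 cells/well; compound pinned; 48 or 72 hr, 37 degree Celsius, 5% CO2, 95% humidity; CellTiter-Glo, 10 min RT; luminescence (ATP).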
On the % scale 0 is the no-effect control and ±100 the full control effect; potency means the concentration at half of the fitted maximal effect; tags describe the fitted curve by direction and shape.

Compound	Potency	activity change, negative = cytotoxicity	outcome
COc1ccc(S(=O)(=O)N2CCOC[C@H](Oc3ccc(C(F)(F)F)cn3)C2)cc1	active: 100 µM	–	–
CS(=O)(=O)Nc1ccc(C2(C(=O)NCCC3=CCCCC3)CCCCC2)cc1	inconclusive: 39.8 µM [inhibitor, partial curve, poor fit]	–	–
Cc1ccc2c(c1)c(Cn1cnc(-c3ccccc3)c1-c1cnc[nH]1)nn2C	inconclusive: 89.1 µM [inhibitor, single point]	–	–
O=C(NCCc1ccccc1)N1CC(Oc2ccccc2-c2nc(-c3ccccc3)no2)C1	active: 22.4 µM	–	–
COc1ccc(-c2ccccc2C(=O)NC2CCOCC2)nn1	–	inactive: -4.15% [at 172 µM]	–
COc1ccc(C2NC(=O)N(CC(=O)N3CCCCCC3)C3=C2C(=O)OC3)cc1 (stereo not drawn)	–	inactive: 2.05%	–
COC1CN(c2cccc(F)c2)C12CCN(C(=O)c1ccncc1)CC2 (stereo not drawn)	–	inactive: -21.6%	–
CCCc1ccc(CN2CCCC(O)(CN(C)C)C2)o1 (stereo not drawn)	–	inactive: -26.5%	–
Cc1ccc(C)c(OCc2cc(C(=O)N(C)Cc3n[nH]c4c3CCCC4)no2)c1	inconclusive: 22.4 µM [inhibitor, full curve, poor fit]	–	–
COc1ccc(CNC(=O)Cn2c(-c3ccc(F)cc3)nc(C)c(CCO)c2=O)cc1	inconclusive: 50.1 µM [inhibitor, partial curve, poor fit]	–	–
CC1CCc2nn3ccn(CC(=O)Nc4ccc(C(F)(F)F)cc4)c(=O)c3c2C1 (stereo not drawn)	inconclusive: 50.1 µM [inhibitor, partial curve, poor fit]	–	–
Cc1nc2ncccn2c1C(=O)N1CCNCC(C(=O)O)C1 (stereo not drawn)	–	–	inactive
Cc1ccc(S(=O)(=O)N2CCCC(Cn3c(C)nc4cccnc43)C2)cc1C (stereo not drawn)	inconclusive: 44.7 µM [inhibitor, partial curve, poor fit]	–	–
O=C(Nc1nn(Cc2ccccc2)c2cccc(N3CCOCC3)c12)c1cnccn1	inconclusive: 89.1 µM [inhibitor, partial curve, poor fit]	–	–
CS(=O)(=O)c1ccc(CC(=O)N2CCc3nn(CC#N)c(=O)n3CC2)cc1	–	inactive: -16.7%	–
O=C(COc1ccccc1Cl)c1ccc2c(c1)N(CC(=O)N1CCCC1)C(=O)CO2	inconclusive: 89.1 µM [inhibitor, partial curve, poor fit]	–	–
CCN(C)C(=O)C(C)N1CCc2onc(-c3ccc(-c4ccccc4)cc3)c2C1 (stereo not drawn)	inconclusive: 44.7 µM [inhibitor, partial curve, poor fit]	–	–
COC(=O)c1cccc(NC(=S)N[C@H]2CO[C@H]3[C@@H]2OC[C@@H]3n2nnnc2Oc2ccc3c(c2)OCO3)c1	inconclusive: 56.2 µM [inhibitor, partial curve, poor fit]	–	–
